Experimental data reported in ChEMBL document CHEMBL4888484, “Replenishing the malaria drug discovery pipeline: Screening and hit evaluation of the MMV Hit Generation Library 1 (HGL1) against asexual blood stage Plasmodium falciparum ,using a nano luciferase reporter read-out” (2022).
Among all 150,000 compounds or so, about 540 (0.36%) showed an effect of 50% or more. The list shows a part of the results.

System: Plasmodium falciparum
Assay: Primary screen in NF54 nanoGlo assay, in single point, at 2uM, 72h; a lower Z score goes with more inhibition
Assay type: functional, Erythrocyte
Conditions: timepoint 72 hour

Structure (SMILES)	% Inhibition [%]	Z score
Cc1csc(CN(C)C(=O)c2ccc(Nc3ccncc3)cc2)n1	3	-0.4
C[C@@H]1CN(C[C@@H]2CN(C(=O)c3ccc4c(c3)OCO4)C[C@@H]2CO)C[C@H](C)O1	-8	0.95
O=C(NC(c1ccccc1)[C@H]1C[C@@H](O)C1)C1CCN(C2CCCC2)CC1 (stereo partly specified)	4	-0.53
CCN1c2ccc(F)cc2C(=O)NC12CCN(C(=O)c1ccc(F)c(Cl)c1)CC2	3	-0.39
CC(=O)N(c1nn(CN2CCC(Cc3ccccc3)CC2)c(=S)s1)C1CC1	4	-0.71
O=C(Nc1ccc(N2CCCCC2)cc1)c1cccc(S(=O)(=O)N2CCCc3ccccc32)c1	-5	0.84
CN(C)CCCn1ccnc1C1CCN(C(=O)N(C)c2ccccc2)CC1	-7	0.67
CCn1c(=O)c(-c2noc(C(=O)N3CCN(C)CC3)n2)nn(-c2ccc(F)cc2)c1=O	-11	2.04
CCc1nc2cc(N)cc(C(=O)N(C)Cc3nccs3)c2n1CCCOC	-9	1.65
Cc1[nH]c2c(-c3c(C#N)c(N)nc4c3CNCC4)cccc2c1C	-6	1.09
C[C@@H](c1ncc(C(C)(C)C)o1)N1CCC(NC(=O)c2ccc[nH]2)CC1	6	-0.88
O=C(NC(c1ccccc1)c1ccccc1F)NC(c1ccccc1)c1ccccc1F (stereo unspecified)	-8	1.15
CCCCn1nnnc1CN1CCCC(C2(C)NC(=O)NC2=O)C1 (stereo unspecified)	-4	0.68
CCOCC1(CNC(=O)CC(=O)Nc2cc(Cl)ccc2C)CCC1	-4	0.54
CC(C)C(=O)N(CC1CN(Cc2ccco2)CC1c1cccc(F)c1)C(C)C (stereo unspecified)	-3	0.44
CC(C)c1nnc(N2CC[C@H](O)CC(C)(C)C2)s1	-9	1.39
CS(=O)(=O)Nc1ccc(-c2noc(C3(C#N)CCCC3)n2)cc1	-12	1.66
Cc1nn(C[C@H]2COc3ccccc3O2)c(=O)n1C	-7	1.11
Cc1nnnn1CCC(=O)N[C@H]1CC[C@@H]2CCC[C@@H]21	-7	0.73
CC1CCCC1(C#N)NC(=O)c1cnc2c(c1)ncn2C (stereo unspecified)	-16	2.37
Cc1ccc(N(Cc2ccccc2)C(=O)c2cc(S(=O)(=O)N3CCOCC3)ccc2F)cc1	0	-0.02

Structure (SMILES)	% Inhibition [%]	Z score
Cc1ccc(C)c(NC(=O)Cn2cnc(-c3noc(-c4ccc(F)cc4)n3)c2)c1	-5	0.65
COC(=O)c1n[nH]cc1-c1cc(-c2cccc(O)c2)nc(N)c1C#N	4	-0.36
C=C(C)CNC(=O)NCc1cn(C)nc1CC	-12	1.24
COc1ccc(C(=O)N2CC(=O)N(CC3CC3)C3(CCCCC3)C2)c(C)c1	-6	0.97
CC(C)c1noc(N2CC3C(C2)C3(C)C)n1 (stereo unspecified)	-12	1.98
O=C(NCc1ccccc1F)c1nc(-c2cnccn2)no1	-9	1.3
CC(NC(=O)C1CC1c1ccco1)C(O)c1c(F)cccc1Cl (stereo unspecified)	-16	2.24
CC(C)c1ccccc1NC(=O)Cn1c(=O)n(CCc2cccs2)c(=O)c2sccc21	5	-0.78
CCn1c(CN2CC[C@@]3(CCCN(C(=O)CCOC)C3)C2)nc2ccccc21	-7	1.5
COC[C@]1(C)NC(=O)N(Cc2csc(C3CCCC3)n2)C1=O	-9	1.14
C[C@]1(CO)CCCN(CCc2ccncc2)C1	-3	0.36
CCOC(=O)CN(CC(C)C)C(=O)Cn1cnnn1	-4	0.71
CC(C)c1nnsc1CNc1cc(N2CCN(C)CC2)nc(N)n1	5	-0.91
CC(C)NC(=O)[C@H](Cc1ccccc1)NC(=O)c1cccnc1	-5	0.55
CCCc1ccc(CN2CCN(C(=O)NCC)[C@H]3CS(=O)(=O)C[C@H]32)o1	-2	0.42
O=C1[C@@H]2C[C@H](O)CCN2C(=O)CN1Cc1n[nH]c2c1CCCCC2	-9	1.79
CN(C)S(=O)(=O)N1C[C@H]2CC[C@@H](C1)N(Cc1ccc(F)c(Cl)c1)C2	3	-0.55
CC1CCC(n2cc(C(=O)C(F)(F)F)cn2)CC1 (stereo unspecified)	-15	1.79
CCCCNC(=O)N1C[C@H](O)C[C@H]1c1n[nH]c(-c2ccccc2)n1	2	-0.3
O=C(c1cnc2ccccc2n1)N1CC[C@H](N2C(=O)CNC2=O)C1	-9	1.78
Cc1cccc(CN2C(=O)OC(c3ccc(NC(=O)c4cccs4)cc3)C2C(=O)NCCN(C)C)c1 (stereo unspecified)	-12	1.71

Structure (SMILES)	% Inhibition [%]	Z score
Cc1c(NC(=O)CN2C(=O)C(=O)c3ccccc32)c(=O)n(-c2ccccc2)n1C	3	-0.55
Cc1ccsc1C(=O)Nc1cccc(C#Cc2ccccn2)c1	-1	0.1
CC(C1CC1)N(C(=O)C1CCS(=O)(=O)C1)c1cccc(C(F)(F)F)c1 (stereo unspecified)	-10	1.22
Cc1ccc(O[C@H]2COCC[C@H]2NC(=O)c2ccc(C#N)nc2)cn1	-4	0.49
CC(=O)Nc1cc(C)c(O)c(NC(C)=O)c1	-8	1.08
Cc1ncsc1CN(C)c1ccc(C(=O)N2CCc3ccccc32)cn1	-14	1.38
Cc1ccoc1C(=O)N1CCNC(=O)C1	-6	1.17
Nc1nc(C(=O)NC2(CN3CCCCC3)CC2)cs1	1	-0.09
CCN1CCN(CCn2cc(Cl)cn2)C(=O)C1=O	4	-0.78
CC[C@@H]1C(=O)NCCCN1CC(=O)Nc1cc(OC)ccc1OC	10	-1.39
CCOc1ccc(S(=O)(=O)N2CC[C@H](CNC(=O)NC)[C@H](N(C)C)C2)cc1	-10	1.39
Cc1nc(Cn2ccnc2C)n(CC(F)(F)F)n1	-7	1.15
CC(=O)c1cccc(NC(=O)CN2CC(c3nc4ccccc4s3)C2)c1	-16	2.03
COc1ccnc(N[C@H]2CCCCCN(C(=O)CN3C(=O)CN(C)C3=O)C2)n1	-6	0.85
Cc1cc(-n2cnnc2Cc2c[nH]c3ccccc23)n(C)n1	-15	1.29
CCOC(=O)Cn1cc2ccc(C)cc2n1	-1	0.11
N#Cc1cc2c(=O)n(Cc3ccccc3)ccc2nc1N1CCOCC1	34	-3.79
Fc1ccc(-c2ccc(CNCc3ccco3)o2)cc1Cl	-34	3.99
CN1CC=C(c2ccccc2)[C@@H](CO)C1	-7	1.39
CC(C)(N)C(=O)N1CCC[C@@]2(CCC(=O)N(CCc3ccccc3)C2)C1	-8	1.22
CCn1c(-c2cc(NC(=O)c3ccccc3F)[nH]n2)cc2c(OC)cccc21	-3	0.29

Structure (SMILES)	% Inhibition [%]	Z score
O=C(Nc1cccc2[nH]cnc12)c1ccc(=O)n(-c2ccccc2F)n1	-2	0.18
Cc1ccccc1N1CCN(C(=O)c2snc3c(=O)n(C)c(=O)[nH]c23)CC1	-3	0.47
N#CCc1cccc(C(=O)N(Cc2ccsc2)c2cccnc2)c1	-6	0.97
CCc1nnc(COc2cccc(F)c2C#N)n1C	-3	0.22
COc1ccccc1CCC(=O)N1CC2(C[C@H](N3CCCC3)CO2)C1	-4	0.65
CCOc1ccccc1NC(=O)C[C@H]1C(=O)Nc2ccccc2N1C(=O)c1ccc(C)cc1	12	-1.68
CC(C)c1nnc(NC(=O)CN2CCC[C@H]2c2ccnn2C)s1	-6	0.92
CC(C)Cc1nc2cc(NS(=O)(=O)N(C)C)cc(C(=O)N3CCC[C@H]3CO)c2n1C	-13	1.32
CO[C@H]1CCN(C(=O)CCc2nc3ccccc3[nH]2)C1	-19	2.41
CC(C)CN1C[C@H](OCc2cccc(F)c2)CN(C(=O)c2cccc3nccnc23)CC1=O	1	-0.2
CC(=O)NCC(=O)Nc1nnc(C2(c3ccccc3)CC2)s1	-7	0.71
CC(C)NC(=O)N1CCCCC[C@H]1c1ccccc1Cl	-3	0.46
O=C(Cc1cccnc1)N(Cc1ccccc1)CC1(O)CCCC1	1	-0.13
CC(=O)N1CCC(C(=O)N[C@H]2CCN3C(=O)N(c4ccc(F)c(Cl)c4)C(=O)[C@@H]3C2)CC1	12	-1.43
CC(C)OCc1noc(CN2CCC[C@@H]3COC[C@@H]32)n1	-10	1.75
O=C(c1ccnc(C2=CCCCC2)c1)N1CCOCC1	-7	1.51
Cc1cc(=O)[nH]c(Cn2cnc(-c3ccccc3)c2-c2ccc(N(C)C)nc2)n1	-19	1.87
Cc1noc(CN(C)C(=O)C2C3C(=O)N(CC(C)(C)C)C[C@@]34C=C[C@@H]2O4)n1 (stereo partly specified)	-8	1.36
Cc1cccc(N2CCN(C(=O)c3ccc(Cn4cncn4)cc3)CC2)c1C	-17	1.65
O=C(Nc1ccccc1)c1ccc(Oc2ccccc2)cc1	-9	1.33
